Results: PubChem BioAssay AID1645882 (National Center for Advancing Translational Sciences (NCATS), 2021)
The whole screen tested about 16,000 compounds, of which about 120 (0.75%) were called active. Roughly 4% stayed inconclusive and do not appear here. Calls come from the whole dose curve; as a rule, active = well fitted inhibition curve with a large enough effect; inconclusive = small, poorly fitted or top-dose-only effect; inactive = no such curve, though single readings can be large or run the other way. Some of the results follow.

Target: Rap guanine nucleotide exchange factor 3 (Homo sapiens) (UniProt O95398)
Sequence of UniProt O95398 (O95398 whole entry, looked up): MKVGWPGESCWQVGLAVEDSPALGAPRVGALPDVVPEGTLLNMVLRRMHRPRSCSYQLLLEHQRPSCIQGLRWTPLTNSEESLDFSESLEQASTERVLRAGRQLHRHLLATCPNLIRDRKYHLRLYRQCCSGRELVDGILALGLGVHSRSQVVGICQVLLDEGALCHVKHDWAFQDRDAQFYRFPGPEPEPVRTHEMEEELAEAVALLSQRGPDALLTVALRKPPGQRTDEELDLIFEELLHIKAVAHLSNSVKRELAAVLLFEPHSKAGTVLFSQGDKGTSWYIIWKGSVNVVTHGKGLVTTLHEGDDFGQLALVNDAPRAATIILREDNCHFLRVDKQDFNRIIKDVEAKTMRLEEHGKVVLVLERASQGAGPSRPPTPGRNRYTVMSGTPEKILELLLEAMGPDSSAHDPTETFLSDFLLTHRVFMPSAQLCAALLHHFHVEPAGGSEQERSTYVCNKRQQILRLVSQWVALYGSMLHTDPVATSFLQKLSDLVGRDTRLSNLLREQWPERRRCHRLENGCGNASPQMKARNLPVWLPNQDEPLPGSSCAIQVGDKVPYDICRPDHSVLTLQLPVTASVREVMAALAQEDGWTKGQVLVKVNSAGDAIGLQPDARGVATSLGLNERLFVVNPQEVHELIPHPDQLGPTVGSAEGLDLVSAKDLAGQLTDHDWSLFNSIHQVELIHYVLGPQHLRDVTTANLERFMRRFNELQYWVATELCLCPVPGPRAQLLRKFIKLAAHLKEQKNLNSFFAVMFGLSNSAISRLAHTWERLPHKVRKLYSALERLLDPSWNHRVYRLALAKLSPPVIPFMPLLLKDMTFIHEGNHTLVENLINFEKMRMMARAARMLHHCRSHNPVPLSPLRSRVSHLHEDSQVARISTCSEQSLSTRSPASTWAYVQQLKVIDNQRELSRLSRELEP
Test: Validation qHTS for antagonist of cAMP-regulated guanine nucleotide exchange factor 3 (EPAC1);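 note: plate controls were DMSO for no effect and ATA control for full effect; nearly all actives have a fitted effect of over 75% in size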
Conditions: EPAC1 Rap1B-BODIPY-GDP exchange, fluorescence; series mostly up to 150 µM; activity change, negative = inhibition: at the top concentration
Procedure, shortened: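 Nucleotide exchange followed as fluorescence loss when BODIPY-GDP leaves Rap1B (480 nm excitation, 540 nm emission), read at 5 min intervals over 30 min. Reaction: 100 nM EPAC1, 250 nM RAP1B-BODIPY-GDP, 50 uM GDP; ATA and DMSO define normalization.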

Activity change, negative = inhibition, inactive:
CN(C)C(=O)[C@@H]1C[C@@H](Sc2nc3ccccc3[nH]2)CN1Cc1ccc(Cl)cc1 -9.39%, COc1ccccc1CNc1ncncc1-c1ccc(C(=O)N(C)C)cc1 9.66%, Cn1nnnc1SCC1=C(C(=O)O)N2C(=O)[C@@H](NC(=O)[C@H](OC=O)c3ccccc3)[C@H]2SC1 24%, Cc1ccc2c(c1)CN(CCNC(=O)C(C)Oc1ccccc1)CC(C)O2 (stereo not drawn) 2.58%, Cn1cccc1C(=O)N1CCC2(CC1)CCN(c1ncccn1)CC2 14.8%, O=C(NC1CCCC1)c1cn(C2CCN(Cc3cccc4cccnc34)CC2)nn1 22.7%, CO/N=C(\C(=O)N[C@@H]1C(=O)N2C(C(=O)O)=C(C[N+]3(C)CCCC3)CS[C@H]12)c1csc(N)n1 12.6%, CCOC(=O)[C@H](CCc1ccccc1)N[C@@H](C)C(=O)N1CCC[C@H]1C(=O)O 29.3%, COC(=O)c1ccccc1-c1cc(C)cc2c1OC(CNC(=O)c1cnc(C)cn1)C2 (stereo not drawn) 1.45%, O=C1CC2(CCCC2)CC(=O)N1CCNCC1COc2ccccc2O1 (stereo not drawn) 24.9%, CCCCOc1cc(C[C@@H]2CNC(=O)N2)ccc1OC 4.97%, Cc1cc(Cn2cnc3c2C[C@@H](C(=O)O)N(C(=O)C(c2ccccc2)c2ccccc2)C3)ccc1N(C)C -1.62%, NC[C@@H]1O[C@H](c2ccccc2)Cc2c1ccc(O)c2O, Cc1nc2ccc(CN(C)c3ccc(C(=O)N[C@@H](CCC(=O)O)C(=O)O)s3)cc2c(=O)[nH]1, Cc1ccc(CN2CCC(C3(c4ccccn4)NC(=O)N(CC4CCCO4)C3=O)CC2)cc1C (stereo not drawn) 3.7%, CC(=O)C[C@H]1c2cc(F)ccc2S(=O)(=O)N1c1ccc(N(C)C)cc1 10.6%, CCCCCOc1ccc(C2SC(=O)NC2=O)cc1OCC (stereo not drawn) 33.7%, CNc1ncnc2c1ncn2[C@H]1C[C@H](OP(=O)(O)O)[C@H](COP(=O)(O)O)O1 3.15%, CC(C(=O)O)c1ccc(/C=C2\CCCCC2=O)cc1 (stereo not drawn) 45.8%, O=C(c1cccc(F)c1)N1CCC[C@@]2(CCN(c3cccc(-c4ccccc4)c3)C2)C1 11.6%, CC(=O)O[C@H]1C[C@H]2CC[C@@H]3[C@H]4C[C@@H]([N+]5(C)CCCCC5)[C@@H](OC(C)=O)[C@]4(C)CC[C@@H]3[C@@]2(C)C[C@@H]1[N+]1(C)CCCCC1 9.56%, Cc1ncc2c(c1CNC(=O)c1ccc3c(c1)OCO3)CCN(C(=O)c1cc3ccccc3o1)C2 15.9%, NCCS(=O)O, Cc1oc(-c2ccccc2NC(=O)C2CCC2)nc1CNC(=O)c1ccc(C#CC(C)(C)O)cc1 3.45%, O=C(O)CCC/C=C\C[C@@H]1CO[C@H](C(F)(F)F)O[C@@H]1c1ccccc1O -3.14%, COC(=O)c1ccc(CN2C[C@H](Sc3ccccn3)C[C@H]2C(=O)N(C)C)cc1 2.99%, CC[N+]1(CC(=O)c2ccc(Br)cc2)CCCCC1 2.16%, N#Cc1ccc(CN2CC3(CCN(C(=O)c4csnn4)CC3)C2)cc1 13.8%, COc1ccc(-c2cc(C(F)F)nn2-c2ccc(S(N)(=O)=O)cc2)cc1F 11.5%, COC(=O)c1ccccc1C(=O)N1CCc2c(cnc(C)c2CNC(=O)c2ccccc2F)C1 19%, COc1cc(-c2cnc3ccccc3c2)cc2c1OCCN(C(=O)CCn1nc(C)cc1C)C2 8.69%, CCCCCc1ccc(-c2cn(CN3C(=O)c4ccccc4C3=O)nn2)cc1 -2.37%, COc1ccc(CNc2cc(-c3ccccc3Cl)ncn2)c(OC)c1 -9.31%, Cn1cc(-c2nc3cnc(Oc4cccc(Cl)c4)nc3n(C3CC3)c2=O)c2ccccc21 11.6%, CN(C)c1ncc2nc(CCc3ccccc3)c(=O)n(CCC#N)c2n1 -4.32%, CC(Oc1ccccc1)C(=O)N[C@@H]1C(=O)N2[C@@H]1SC(C)(C)[C@@H]2C(=O)O (stereo partly drawn) -7.61% [at 75.8 µM], CC(C)NC[C@H](O)c1ccc(O)c(O)c1, COc1cccc(CN2CCC3(CCC(CNC(=O)c4cc(C)nn4C)O3)CC2)c1OC (stereo not drawn) 24.8%, COc1ccc(N2C(=O)[C@@H]3C[C@H]2CN3Cc2cccn2-c2nccs2)cc1Cl 10.6%, CC(=O)O[C@](C)(CCC=C(C)C)C1CC=C(C)CC1 (stereo partly drawn) 17.9%, Cc1cc2c(c(-c3cnccn3)c1)OC(CNC(=O)c1cc(Cl)ccc1F)C2 (stereo not drawn) -4.59%, Cc1ncc2c(c1CNS(=O)(=O)c1cccs1)CCN(C(=O)/C=C/c1ccc(F)cc1F)C2 5.99%, Cc1cc(C(=O)NCc2nnc3n2CCN(Cc2ccc(C)c(C)c2)CC3)c(C)o1 12.4%, CC(=O)c1ccccc1C(=O)NCC1Cc2cccc(-c3cccnc3)c2O1 (stereo not drawn) 4.77%, O=C(c1cncs1)N(Cc1cc2cc3c(cc2nc1N1CCOCC1)CCC3)CC1CCCO1 (stereo not drawn) 6.36%, COc1ccc(C(=O)NCc2ccc(OCCN(C)C)cc2)cc1OC 8.43%, O=C(Nc1ncc([N+](=O)[O-])s1)c1cccs1 6.62%, CN1[C@@H]2CC[C@H]1CC(NC(=O)n1c(=O)[nH]c3ccccc31)C2 (stereo partly drawn) 36.4%, N[C@@H](C(=O)N[C@@H]1C(=O)N2C(C(=O)O)=C(Cl)CS[C@H]12)c1ccccc1 12.9%, Cc1ccc2c(c1)ncc[n+]2CC(=O)c1ccc(F)cc1 -22.4%, COc1ccc(CCC(=O)c2c(O)cc(OC3OC(CO)C(O)C(O)C3O[C@@H]3OC(C)C(O)C(O)C3O)cc2O)cc1O (stereo partly drawn) -2.88%, COc1cccc(Cn2c(=O)c(-c3ccccc3)nc3cnc(N4CCN(C)CC4)nc32)c1 5%, COc1cc(C[C@@H]2NCCc3cc(O)c(O)cc32)cc(OC)c1OC 35%, COc1ccc(NC(=O)[C@@H]2CC=C[C@@H]3CCN(C4CC4)C(=O)[C@@H]32)cc1 15.5%, COc1ccc(-n2c(CNC(=O)c3ccccc3C(F)(F)F)nnc2SC)cc1 4.49%, CN1CCN(c2ccnc(-c3cccc(NS(C)(=O)=O)c3)n2)CC1 23.8%, Cc1ccc2c(CC(=O)N3CCOc4ccc(CN5CCOCC5)cc4C3)cc(=O)oc2c1 8.61%, Cc1c(C(=O)NCCC2CCCN2C)cnn1-c1nccc(-c2ccccc2F)n1 (stereo not drawn) 21.4%, CN(C)c1ncc2nc(-c3cc(F)cc(F)c3)c(=O)n(C)c2n1 2.78%, CC(C)Cc1nc2cc(NS(=O)(=O)N(C)C)cc(C(=O)N3CCc4ccccc4C3)c2n1C 19.2%, COc1ccc(-n2c(=O)c(CCc3ccccc3)nc3cnc(N4CCN(C)CC4)nc32)cc1 4.57%, c1cc(NC2CC2)nc(-c2ccoc2)n1 7.33%, CC(C)CN(C[C@@H](OP(=O)(O)O)[C@H](Cc1ccccc1)NC(=O)O[C@H]1CCOC1)S(=O)(=O)c1ccc(N)cc1 -5.44%, C[C@@H](CC#N)CN1CC[C@H](C(C)(C)C)CCC1=O 0.636%, O=c1c(CCc2ccccc2)nc2cncnc2n1-c1ccccc1 -13.7%, COc1cccc2oc(-c3ccc(O)cc3)cc(=O)c12 14.9%, CC(C)(C)c1ccc(C(=O)C[N+]2(C)CCCc3ccccc32)cc1 (stereo not drawn) 8.76%, Cn1c([N+](=O)[O-])cnc1COC(N)=O 11.2%, NC(N)=O, Cc1cccc(C)c1NC(=O)CN1CCCCCC1 5.93%, O=C(CN1Cc2ccccc2OC(c2ccsc2)C1)NCC1OCCc2ccccc21 (stereo not drawn) -6.17%, Cc1ccc(SC[C@H](C)CN2CC[C@H](NC(=O)OCc3ccccc3)CCC2=O)cc1 0.485%, CN[C@H](CC(C)C)C(=O)N[C@H]1C(=O)N[C@@H](CC(N)=O)C(=O)N[C@@H]2C(=O)N[C@H]3C(=O)N[C@H](C(=O)N[C@H](C(=O)O)c4cc(O)cc(O)c4-c4cc3ccc4O)[C@H](O)c3ccc(c(Cl)c3)Oc3cc2cc(c3O[C@@H]2O[C@H](CO)[C@@H](O)[C@H](O)[C@@H]2O[C@H]2C[C@](C)(N)[C@H](O)[C@H](C)O2)Oc2ccc(cc2Cl)[C@H]1O -5.37% [at 75.8 µM], COC(=O)c1cc(CNC(=O)c2cccc(C)c2)cc(NC(=O)c2ccncc2)c1 20%, CCCCCCCCCCCCCCCCCC(=O)OC(CC(=O)O)C[N+](C)(C)C (stereo not drawn) -7.32% [at 75.8 µM], COC(=O)N1CCC2(CC1)CN(C(=O)Nc1cccc(C#N)c1)C2 33.2%, COc1ccccc1C(=O)N1CCCC(c2nc(SCCN3CCOCC3)ncc2C)C1 (stereo not drawn) 5.25%, Cn1cccc1C(=O)N1CCC2(CCCN(c3ccc(-c4ccccc4)cc3)C2)CC1 8.59%, CN(C)CCCO[C@@H]1[C@H]2OC(C)(C)O[C@H]2O[C@@H]1C(O)CO (stereo partly drawn) 16.6%, O=C1c2ccccc2S(=O)(=O)N1CCCCN1CCN(c2ncccn2)CC1 -14.6%, Cc1c(C(=O)NC2CCCCC2)sc2ncnc(NCCN(C)C)c12 13.7%, COc1ccc(O)c(CN2CCCN(c3nc(C)c4cc(C)c(C)cc4n3)CC2)c1 7.44%, Cc1ccc(S(=O)(=O)O)cc1C 11.8%, COc1ccc(-c2cn(Cc3cccc(OC)c3)nn2)cc1 -1.88%, CC(=O)OC1CCC2(C)C(=CC=C3C2CCC2(C)C3CCC2C(C)/C=C/C(C)C(C)C)C1(C)C (stereo not drawn) -7.1%, Clc1ccc(C(c2ccc(Cl)cc2)n2cc[n+](CC(OCc3ccc(Cl)cc3Cl)c3ccc(Cl)cc3Cl)c2)cc1 (stereo not drawn) -6.34% [at 75.8 µM], Cc1nc2cnc(N(C)C)nc2n(C)c1=O 10.2%, CN(c1ccccc1)S(=O)(=O)c1ccccc1Br -2.13%, COc1ccc2[nH]cc(CCNc3ncncc3-c3ccccc3C)c2c1 -17.6%, COc1ccc(Oc2ncc3nc(C)c(=O)n(CCc4ccccc4)c3n2)cc1 11.8%, CCOC(=O)CCC(=O)O[C@H]1C(O[C@@H]2C(C)[C@H](O[C@H]3C[C@@](C)(OC)C(O)C(C)O3)C(C)C(=O)OC(CC)[C@@](C)(O)C(O)[C@H](C)C(=O)C(C)C[C@]2(C)O)OC(C)CC1N(C)C (stereo partly drawn) -2.91%, Cc1ccc2[nH]c(C(=O)NCc3nc(-c4cccc(NC(=O)c5cc(C)oc5C)c4)oc3C)cc2c1 9.71%, O=C(O)CC1CC(c2ccccc2)=NO1 (stereo not drawn) 4.74% [at 75.8 µM]
